Measured values published in publication PMC9356134.
These are yes or no findings as the source states them, for the method shown. Binding seen in cells or lysates may run through a third protein. Some results given as binding are weak or reduced against the parent protein; the word gives no strength.

Amino acid sequences for entries named in this document (tags omitted). A change or cut given only in a name is not applied to a line headed by its entry.
UniProt Q93009: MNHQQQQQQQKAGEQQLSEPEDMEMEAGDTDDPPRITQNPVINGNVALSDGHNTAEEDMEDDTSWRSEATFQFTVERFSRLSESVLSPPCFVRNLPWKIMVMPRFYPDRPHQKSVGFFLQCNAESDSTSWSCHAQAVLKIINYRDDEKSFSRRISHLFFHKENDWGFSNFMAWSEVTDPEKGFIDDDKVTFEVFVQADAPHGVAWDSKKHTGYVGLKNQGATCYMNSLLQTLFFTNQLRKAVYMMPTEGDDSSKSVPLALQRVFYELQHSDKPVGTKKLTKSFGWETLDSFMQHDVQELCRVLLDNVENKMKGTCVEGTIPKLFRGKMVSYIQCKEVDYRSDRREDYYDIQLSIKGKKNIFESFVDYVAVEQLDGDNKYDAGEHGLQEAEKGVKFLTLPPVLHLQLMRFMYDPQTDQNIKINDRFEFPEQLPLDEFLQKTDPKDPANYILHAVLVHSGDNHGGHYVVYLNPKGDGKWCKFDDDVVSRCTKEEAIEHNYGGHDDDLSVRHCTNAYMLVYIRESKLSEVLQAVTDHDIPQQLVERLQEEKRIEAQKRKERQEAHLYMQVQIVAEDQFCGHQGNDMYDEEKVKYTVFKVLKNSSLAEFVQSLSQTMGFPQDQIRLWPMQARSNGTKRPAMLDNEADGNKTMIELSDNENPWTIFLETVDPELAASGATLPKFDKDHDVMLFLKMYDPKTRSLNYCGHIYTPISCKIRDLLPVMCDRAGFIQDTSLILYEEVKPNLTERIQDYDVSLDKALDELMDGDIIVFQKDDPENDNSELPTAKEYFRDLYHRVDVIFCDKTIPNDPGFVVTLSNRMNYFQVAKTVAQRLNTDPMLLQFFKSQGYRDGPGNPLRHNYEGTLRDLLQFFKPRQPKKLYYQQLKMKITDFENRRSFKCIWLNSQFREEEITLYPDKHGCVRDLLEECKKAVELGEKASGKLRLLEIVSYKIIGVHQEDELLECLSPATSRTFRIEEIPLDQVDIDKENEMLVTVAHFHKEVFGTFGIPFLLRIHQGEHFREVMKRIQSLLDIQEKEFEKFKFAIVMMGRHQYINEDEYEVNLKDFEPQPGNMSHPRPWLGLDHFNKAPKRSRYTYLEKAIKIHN
UniProt Q9GZV5: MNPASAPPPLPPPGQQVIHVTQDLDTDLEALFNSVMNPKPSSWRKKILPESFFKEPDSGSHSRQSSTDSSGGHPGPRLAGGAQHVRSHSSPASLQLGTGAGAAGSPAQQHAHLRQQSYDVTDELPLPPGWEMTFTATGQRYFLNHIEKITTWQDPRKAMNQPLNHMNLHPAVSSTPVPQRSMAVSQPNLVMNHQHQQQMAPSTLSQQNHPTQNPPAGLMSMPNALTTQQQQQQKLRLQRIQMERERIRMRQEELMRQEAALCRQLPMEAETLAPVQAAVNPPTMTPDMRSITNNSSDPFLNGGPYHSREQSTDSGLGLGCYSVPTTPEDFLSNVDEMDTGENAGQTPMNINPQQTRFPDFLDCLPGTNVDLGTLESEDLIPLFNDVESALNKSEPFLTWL
UniProt Q15561: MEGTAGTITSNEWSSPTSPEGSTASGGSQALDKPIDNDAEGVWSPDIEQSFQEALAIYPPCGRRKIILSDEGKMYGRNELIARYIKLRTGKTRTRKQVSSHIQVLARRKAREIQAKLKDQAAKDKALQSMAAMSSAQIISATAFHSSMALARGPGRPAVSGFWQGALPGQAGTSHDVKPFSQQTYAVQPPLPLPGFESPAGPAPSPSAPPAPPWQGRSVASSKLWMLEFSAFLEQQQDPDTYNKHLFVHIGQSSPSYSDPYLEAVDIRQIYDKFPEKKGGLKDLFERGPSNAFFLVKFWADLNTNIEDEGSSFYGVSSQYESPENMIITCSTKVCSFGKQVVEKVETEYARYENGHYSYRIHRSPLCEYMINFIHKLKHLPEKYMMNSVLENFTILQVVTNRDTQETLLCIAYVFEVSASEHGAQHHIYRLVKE

Assays:
[1] = biological target: Myc-USP7-WT (full-length) (human) (UniProt Q93009); assay: co-IP; Flag-TAZ (full-length or truncations) and Myc-USP7 co-expressed in HEK293T; lysates precipitated with anti-Myc antibody, immunoblot with anti-Flag
[2] = biological target: Flag-TAZ (full-length) (human) (UniProt Q9GZV5); assay: co-IP; Myc-USP7 (full-length or truncations) and Flag-TAZ co-expressed in HEK293T; lysates precipitated with anti-Flag antibody, immunoblot with anti-Myc
[3] = biological target: ubiquitin-specific protease 7 (USP7), endogenous (human (endogenous in Cal27)) (UniProt Q93009); assay: co-IP; endogenous proteins; Cal27 cell lysates precipitated with anti-TAZ or anti-USP7 antibody and Protein A/G Plus Agarose overnight at 4 °C, immunoblot with anti-TAZ/anti-USP7
[4] = biological target: TEAD4, endogenous (human (endogenous in Cal27)) (UniProt Q15561); assay: co-IP; Cal27 cells transfected with Myc-USP7^WT or Myc-USP7^C223S for 48 h; whole cell lysates precipitated with anti-TEAD4 antibody, immunoblot with anti-TAZ
[5] = biological target: Transcriptional coactivator with PDZ-binding motif (TAZ), endogenous (human (endogenous in Cal27)) (UniProt Q9GZV5); assay: co-IP; endogenous proteins; Cal27 cell lysates precipitated with anti-TAZ or anti-USP7 antibody and Protein A/G Plus Agarose overnight at 4 °C, immunoblot with anti-TAZ/anti-USP7

Substance	binding [1]	binding [2]	other results
Flag-TAZ (125-270aa) (from UniProt Q9GZV5 125-270) (domain or fragment)	binds		
Flag-TAZ (270-400aa) (from UniProt Q9GZV5 270-400) (domain or fragment)	binds		
Myc-USP7 (1-208aa) (from UniProt Q93009 1-208) (domain or fragment)		binds	
Transcriptional coactivator with PDZ-binding motif (TAZ), endogenous (from UniProt Q9GZV5 1-400)			binding [3]: binds; binding [4]: binds
ubiquitin-specific protease 7 (USP7), endogenous (from UniProt Q93009 1-1102) (enzyme)			binding [5]: binds

Now from value to substance, other results behind:

binding [1]	binding [2]	Substance	other results
binds		Flag-TAZ (1-125aa) (from UniProt Q9GZV5 1-125) (domain or fragment)	
	no binding	Myc-USP7 (208-560aa) (from UniProt Q93009 208-560) (domain or fragment)	
	no binding	Myc-USP7 (560-1102aa) (from UniProt Q93009 560-1102) (domain or fragment)	
